Data from PubChem BioAssay AID1508624 (National Center for Advancing Translational Sciences (NCATS), 2021).
In all, about 48,000 compounds went through this assay and about 120 (0.25%) were called active. Roughly 4% stayed inconclusive and do not appear here. Calls come from the whole dose curve; as a rule, active = well fitted activation curve with a large enough effect; inconclusive = small, poorly fitted or top-dose-only effect, or another doubt; inactive = no such curve, though single readings can be large or run the other way. The list shows a part of the results.

Test: Primary qHTS for Identification of Small Molecule Activators of Huntingtin-Antisense Promoter Activity; note: nearly all actives have a fitted effect of over 55% in size
Conditions: HEK293 HTT-AS promoter firefly luciferase reporter, 24 h; series mostly up to 57.5 µM; activity change, positive = activation: at the top concentration
How it was run: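 Luminescence was read after Dual-Glo reagent and a 10 min room-temperature incubation. Values were normalized to vehicle (0% activity) and zero RLU (-100% activity). Reporter HEK293 cells had been exposed to compounds (up to 57.5 uM final) for 24 h.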
Potency is the fitted concentration of half-maximal effect.

Activity change, positive = activation, inactive:
CN(Cc1ccccc1)C(=O)CCS(=O)(=O)c1ccc2c(c1)oc(=O)n2C -5.86%
CCn1cc(S(=O)(=O)c2cccc(Cl)c2)c(=O)c2cc(F)c(N3CCN(C)CC3)cc21 0.266%
COC(=O)c1ccccc1NC(=O)c1ccc(-c2nc(CSc3ccc(C)cc3)c(C)o2)cc1 1.04%
Cc1ccc(-n2c(=O)c3c4c(sc3n(CC(=O)Nc3cccc(Cl)c3)c2=O)CCCCC4)cc1C -19.1%
COc1cc(C)nc(-n2nc(C)cc2OC)n1 -1.02%
CS(=O)(=O)Nc1ccc([N+](=O)[O-])cc1Oc1ccccc1
Cc1cccc(C)c1OCC(=O)NC(Cc1c[nH]c2ccccc12)C(=O)O (centres undefined) -1.73%
Cc1ccc(S(=O)(=O)NCc2nc3nc(C)cc(C)n3n2)cc1 1.82%
Cc1ccc(C)c(CN2CCCN(CC(=O)Nc3ccc(C)c(C)c3)S2(=O)=O)c1 -28.1%
COc1cc(Cl)c(C)cc1NC(=O)CCc1nc2cccnc2n1Cc1cccs1 -27.3%
CCN(CC)CCCNC(=O)c1ccc(Cn2c(=O)[nH]c3cc(OC)c(OC)cc3c2=O)cc1 2.38%
Cn1cc(C(=O)NCc2ccccc2Cl)c(=O)c2cc(S(=O)(=O)N3CCCCCC3)ccc21 5.95% [at 11.5 µM, percent change from vehicle, -100% = no light]
CCOC(=O)c1c(S(=O)(=O)N2CCC(C(=O)N3CCN(c4ccccc4F)CC3)CC2)c(C)n(C)c1C 0%
CCn1cc(C(=O)O)c(=O)c2cc(F)c(N3CCNC(C)C3)c(F)c21 (centres undefined)
CC1=C(C(=O)Nc2ccccc2)C(c2ccc[nH]2)n2ncnc2N1 (centres undefined) -4.3%
COc1ccccc1N1CCN(Cc2nnc(-c3ccccc3C)o2)CC1 11.5%
O=S(=O)(Nc1ccc(C(F)(F)F)cc1)c1ccc2c(c1)OCCO2 -32%
COCCCn1c(=O)c2sccc2n2c(CCCC(=O)Nc3cccc(C(F)(F)F)c3)nnc12 -3.85%
O=C(NCCCc1nc2ccccc2n1Cc1cccc(Cl)c1)C1CCCCC1 -26.4%
O=C(c1ccc2c(c1)N(Cc1ccc(Cl)cc1)C(=O)c1ccccc1S2=O)N1CCC(Cc2ccccc2)CC1 (centres undefined) -41.5%
COc1cccc(-c2nn3c(=O)cc(CN4CCN(C(=O)/C=C/c5ccccc5)CC4)nc3s2)c1 -7.82%
COc1ccc(NC(=O)Cn2nc(C(F)(F)F)c3c2CCCC3)cc1OC -33.1%
CCOc1ccccc1NC(=O)C1=C(C)Nc2ncnn2C1c1cccs1 (centres undefined) -23.6%
Cc1cccc(N2CCN(C(=O)c3ccc4c(Cl)c5c(nc4c3)CCCC5)CC2)c1C -28.6%
COc1cc(NC(=O)c2nc3ccccc3n(C)c2=O)cc(OC)c1OC 13.5%
CC(C)NC(=O)CN1C(=O)c2cccnc2Sc2ccccc21 -7.95%
Cc1ccc(CCNC(=O)CCS(=O)(=O)c2cc3c(cc2Cl)NC(=O)CO3)cc1 -6.34%
COc1ccc(CNC(=O)C2=CC(c3cccc(OC)c3)=NS(=O)(=O)N2C)cc1 -12.7%
CC(=O)c1cccc(NC(=O)c2cc(C)nc3c2c(C)nn3-c2cccc(Cl)c2C)c1 -26.5%
COC(=O)c1c(-c2ccc(Cl)cc2)noc1N1CCN(c2ccc(F)cc2)CC1 -11%
Cc1ccc(-c2nc(-c3cc4cccc(OCc5ccccc5F)c4oc3=O)no2)cc1 -3.98%
Cc1ccc(NC(=O)Cn2c(=O)n(Cc3ccc(C(=O)NCc4ccc5c(c4)OCO5)cc3)c(=O)c3ccccc32)cc1 -7.04%
CCOc1ccc(CNC(=O)CCS(=O)(=O)c2ccc3c(c2)oc(=O)n3C)cc1 16.7% [at 11.5 µM, percent change from vehicle, -100% = no light]
COC(=O)c1ccc(NC(=O)C(=O)NCC(c2cccnc2)N2CCc3ccccc32)cc1 (centres undefined) -54.9%
CCCOc1ccc(C(=O)Nc2ccc3oc(-c4ccc(N(C)C)cc4)nc3c2)cc1 -0.568%
Cc1c(Cl)cccc1NC(=O)Cn1nnc(-c2nc(-c3ccccc3)no2)c1N 10.3%
Cc1cccc(C)c1NC(=O)CSc1nc2ccccc2c2nc(CCc3c(C)n[nH]c3C)nn12 10.2%
CCC1=C[C@@H]2CN(C1)Cc1c([nH]c3ccccc13)[C@@](C(=O)OC)(c1cc3c(cc1OC)N(C)[C@H]1[C@@](O)(C(=O)OC)[C@H](OC(C)=O)[C@]4(CC)C=CCN5CC[C@]31[C@@H]54)C2 -27.5%
CCCOc1ccc(OC(=O)c2cn(-c3ccc(OC)cc3)c(=O)c3ccccc23)cc1 -21%
CCn1cc(C(=O)NCCc2ccc(C)cc2)c(=O)c2cc(S(=O)(=O)N3CCC(C)CC3)ccc21 -12.8%
CC(=O)N1CCN(c2ccc(OCc3nn(C)c(C)c3-c3cccc4c(CCCOc5cccc6ccccc56)c(C(=O)O)n(Cc5cccnc5)c34)cc2)CC1 -15.5%
CC1=C(C(=O)OCC2CCCCC2)C(c2c(F)cccc2Cl)CC(=O)N1 (centres undefined) -30.3%
COc1cc(OC)c(NC(=O)Nc2ccccc2OCc2cc(=O)n3cc(C)ccc3n2)cc1Cl 10.5%
COc1ccc(CCNC(=O)CCc2c(C)nc3nc(C)nn3c2C)cc1OC -7.4%
CCc1ccc(S(=O)(=O)c2nnn3c2nc(NC2CCCC2)c2sccc23)cc1 -12%
COc1ccc(C)cc1NC(=O)CCS(=O)(=O)c1ccc2c(c1)CC(=O)N2C -13.2%
COCCNC(=O)c1cc(Sc2ccc(F)cc2F)nc2ccccc12 -11.1%
COc1ccc(-n2ccn(Cc3ccc(C)cc3)c(=O)c2=O)cc1OC -16.2%
O=C(c1ccc2c(c1)N(Cc1ccc(F)cc1)C(=O)c1ccccc1S2(=O)=O)N1CCC(Cc2ccccc2)CC1 -3.12%
O=C(CSc1ccc2ccccc2n1)Nc1nsc(-c2ccc(Cl)cc2)n1 0.947%
COc1ccc(NC(=O)CN(C)S(=O)(=O)c2ccc3[nH]c4c(c3c2)CCCC4)cc1Cl -34.5%
CC(=O)N1c2nc(-c3ccco3)nn2C2(CCCCC2)[C@@H]2CCCC[C@@H]21 -7.52%
COc1ccc(Cn2c(SCc3ccc(C(=O)NCc4ccccc4F)cc3)nc3cccnc32)cc1 -24.1%
Cc1cccc(-n2c(=O)c3c(c4cc(C)ccc4n3C)n(Cc3ccccc3F)c2=O)c1 -8.44%
COc1cc(C(=O)Nc2ccc(OCc3cc(=O)n4cc(C)sc4n3)cc2)cc(OC)c1OC -12.1%
O=C(NCCc1ccccc1)c1c[nH]c2ccc(S(=O)(=O)Nc3ccccc3F)cc2c1=O -29.1%
COc1ccc(NC(=O)Nc2nnc(N(C)C3CCCCC3)s2)c(OC)c1 -5.19%
CCOC(=O)c1sc(NC(=O)COc2ccccc2Cl)c(C(=O)OCC)c1C 3.01%
O=C(Nc1ccc(O)c(-c2nc3ccccc3o2)c1)c1ccco1 -0.117%
Cc1ccccc1NC(=O)CSc1nc2c(oc3ccccc32)c(=O)n1-c1ccccc1F -24%
CCCOc1cccc(C(=O)N(Cc2cc(OC)c(OC)c(OC)c2)C2CCS(=O)(=O)C2)c1 (centres undefined) 1.42%
Cc1ccc2nc(N(CCCN(C)C)C(=O)c3ccc(Br)s3)sc2c1 -43.6%
Cc1ccc(OCCn2nnc3sc4c(c3c2=O)CCC(C(C)(C)C)C4)cc1 (centres undefined) -14.7%
CCn1c(CN2CCC(C)CC2)nc2cc(NC(=O)COc3ccc([N+](=O)[O-])cc3)ccc21 -29.1%
CC(C)c1ccc(NC(=O)c2cccn2-c2nnc(N3CCCCC3)s2)cc1 -21.1%
COc1ccc(C2=Nc3ccc(C)cc3NC(c3ccc(Cl)cc3)=N2)cc1 11.2%
Cc1ccc(Cl)cc1N1C(=O)N(Cc2ccc(C#N)cc2)c2ccccc2S1(=O)=O -33.7%
COc1ccc(Cl)cc1NC(=O)CCCn1c(C)c2cnn(-c3ccccc3)c(=O)c2c1C -11.4%
COc1ccc(CNC(=O)c2cccc(NC(=O)N3CCSc4ncccc43)c2)cc1 -21.6%
COc1ccc(-c2noc(N3CCC(C(=O)Nc4ccc(C)c(F)c4)CC3)n2)cc1OC -25%
COc1cccc(Cn2c(=O)n(-c3ccc(Br)cc3F)c(=O)c3sc4ccccc4c32)c1 -14.7%
CCOc1cccc2cc(-c3nc4sc5c(c4c(=O)[nH]3)CCC(C)C5)c(=O)oc12 (centres undefined) -1.93%
CCCCNC(=O)CSc1nc2ccccc2nc1Cc1ccc(Cl)cc1 -4.5%
Cc1ccc(NC(=O)CC2Nc3cccc4cccc(c34)NC2=O)cc1 (centres undefined) -29.1%
COc1ccc(NC(=O)CCNS(=O)(=O)c2cccc3nsnc23)cc1OC -6.49%
COC(=O)c1ccc(Cn2c(SCc3cccc(C)c3)nc3ccncc32)cc1 0.208%
Cc1cc(C)c(/C=C/c2onc(C)c2S(=O)(=O)N2CCC(C(=O)N3CCN(c4ccccc4)CC3)CC2)c(C)c1 6.66%
CCOC(=O)c1sc2ncn(CC(=O)Nc3ccc(C)cc3C)c(=O)c2c1C -8.85%
Cc1ccc(-c2ccc(=O)n(C(C)C(=O)Nc3ccccc3Cl)n2)cc1C (centres undefined) -20.4%
CCn1cc(C(=O)O)c(=O)c2cc(F)c(N3CCN(C)CC3)cc21
CCCCNC(=O)C(CC)Sc1nnc(-c2ccc(OC)c(OC)c2)c(-c2ccc(OC)c(OC)c2)n1 (centres undefined) 2.89%
COc1cccc(NC(=O)c2cn(C3CCCCC3)c(=O)c3c2c2ccccc2n3C)c1 -15.6%
CC1CCc2nc3ncn(CC(=O)Nc4cccc(C#N)c4)c(=O)c3cc2C1 (centres undefined) 16.5%
COc1ccc(S(=O)(=O)N(CC(=O)N2CCC(C)CC2)c2ccc(C)cc2)cc1 -26.7%
COc1ccccc1-c1nn(CCC(=O)Nc2cccc(C(C)=O)c2)c2nc(C)cc(C)c12 -33.6%
COc1ccc(C(=O)NCC(c2cccs2)S(=O)(=O)c2ccc(C)cc2)cc1 (centres undefined) -25.8%
COc1cc(Cl)c(C)cc1NC(=O)CN1c2ccccc2S(=O)(=O)c2ccccc21 -34.2%
Cc1cc(N2CCC(C)CC2)nc2ccc(NC(=O)CCC(=O)N3CCN(c4cccc(C(F)(F)F)c4)CC3)cc12 -8.52%

Potency, active:
CC1CCN(C(=O)c2cc(-c3ccc(Cl)cc3)on2)CC1 2000 nM
